Assay results reported in publication PMC12820563.
The list shows a part of the results. The list includes weakly bound sequences.

target: T1, MBP-FoxP3dN (UniProt Q99JB6); experiment: PD-seq (MBP pull-down with sequencing); settings: 20 mM Tris-HCl pH 7.5, 100 mM NaCl, 1.5 mM MgCl2, 0.4 uM protein, 0.1 uM dsDNA library, 30 min, room temperature, amylose pull-down; high values mean tight binding; double strand, one strand shown
T1 sequence: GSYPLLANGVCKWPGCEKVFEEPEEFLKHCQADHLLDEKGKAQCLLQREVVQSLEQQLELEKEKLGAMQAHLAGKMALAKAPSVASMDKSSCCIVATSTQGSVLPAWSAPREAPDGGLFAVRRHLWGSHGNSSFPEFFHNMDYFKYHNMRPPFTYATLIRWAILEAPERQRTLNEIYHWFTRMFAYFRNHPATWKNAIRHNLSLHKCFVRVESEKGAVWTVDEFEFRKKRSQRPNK

Row | Sequence | binding signal (RPM ratio (pull-down/input))
1 | GATGATTGTTCTCCCAGCTGATGAATTTTACGGTTCGAGTAAACAAATTTTCCTAATCTTTCTGTTCAAGCGCCATCTAC | 0.338
2 | GATGATTGTTCTCCCAGCTGATGAATTAAGATCGTCGAGTAAACAAATTTTCCTAATCTTTCTGTTCAAGCGCCATCTAC | 0.318
3 | GATGATTGTTCTCCCAGCTGATGAATTCTACGTGTCGAGTAAACAAATTTTCCTAATCTTTCTGTTCAAGCGCCATCTAC | 0.485
4 | GATGATTGTTCTCCCAGCTGATGAATTCCAGTCTTCGAGTAAACAAATTTTCCTAATCTTTCTGTTCAAGCGCCATCTAC | 0.354
5 | GATGATTGTTCTCCCAGCTGATGAATTTTGTGGCTCGAGTAAACAAATTTTCCTAATCTTTCTGTTCAAGCGCCATCTAC | 1.92
6 | GATGATTGTTCTCCCAGCTGATGAATTACCGAACTCGAGTAAACAAATTTTCCTAATCTTTCTGTTCAAGCGCCATCTAC | 0.269
7 | GATGATTGTTCTCCCAGCTGATGAATTGCACTCTTCGAGTAAACAAATTTTCCTAATCTTTCTGTTCAAGCGCCATCTAC | 1.06
8 | GATGATTGTTCTCCCAGCTGATGAATTGCGTCCCTCGAGTAAACAAATTTTCCTAATCTTTCTGTTCAAGCGCCATCTAC | 1.31
9 | GATGATTGTTCTCCCAGCTGATGAATTATGCGCTTCGAGTAAACAAATTTTCCTAATCTTTCTGTTCAAGCGCCATCTAC | 1.88
10 | GATGATTGTTCTCCCAGCTGATGAATTAACTTAATCGAGTAAACAAATTTTCCTAATCTTTCTGTTCAAGCGCCATCTAC | 0.232
11 | GATGATTGTTCTCCCAGCTGATGAATTTTCCTTTTCGAGTAAACAAATTTTCCTAATCTTTCTGTTCAAGCGCCATCTAC | 0.231
12 | GATGATTGTTCTCCCAGCTGATGAATTTTGGATTTCGAGTAAACAAATTTTCCTAATCTTTCTGTTCAAGCGCCATCTAC | 0.346
13 | GATGATTGTTCTCCCAGCTGATGAATTAGCCTCCTCGAGTAAACAAATTTTCCTAATCTTTCTGTTCAAGCGCCATCTAC | 1.57
14 | GATGATTGTTCTCCCAGCTGATGAATTTATGTAGTCGAGTAAACAAATTTTCCTAATCTTTCTGTTCAAGCGCCATCTAC | 2.42
15 | GATGATTGTTCTCCCAGCTGATGAATTCCATACCTCGAGTAAACAAATTTTCCTAATCTTTCTGTTCAAGCGCCATCTAC | 0.362
16 | GATGATTGTTCTCCCAGCTGATGAATTAATATCTTCGAGTAAACAAATTTTCCTAATCTTTCTGTTCAAGCGCCATCTAC | 0.655
17 | GATGATTGTTCTCCCAGCTGATGAATTCACTCTTTCGAGTAAACAAATTTTCCTAATCTTTCTGTTCAAGCGCCATCTAC | 0.261
18 | GATGATTGTTCTCCCAGCTGATGAATTTTCGTCTTCGAGTAAACAAATTTTCCTAATCTTTCTGTTCAAGCGCCATCTAC | 0.346
19 | GATGATTGTTCTCCCAGCTGATGAATTACGTTCTTCGAGTAAACAAATTTTCCTAATCTTTCTGTTCAAGCGCCATCTAC | 0.566
20 | GATGATTGTTCTCCCAGCTGATGAATTGACGTATTCGAGTAAACAAATTTTCCTAATCTTTCTGTTCAAGCGCCATCTAC | 1.15

Row | Sequence | binding signal (RPM ratio (pull-down/input))
21 | GATGATTGTTCTCCCAGCTGATGAATTTGCTAAATCGAGTAAACAAATTTTCCTAATCTTTCTGTTCAAGCGCCATCTAC | 0.319
22 | GATGATTGTTCTCCCAGCTGATGAATTCACTCCTTCGAGTAAACAAATTTTCCTAATCTTTCTGTTCAAGCGCCATCTAC | 0.292
23 | GATGATTGTTCTCCCAGCTGATGAATTAGAATGCTCGAGTAAACAAATTTTCCTAATCTTTCTGTTCAAGCGCCATCTAC | 0.839
24 | GATGATTGTTCTCCCAGCTGATGAATTCTTTAATTCGAGTAAACAAATTTTCCTAATCTTTCTGTTCAAGCGCCATCTAC | 0.234
25 | GATGATTGTTCTCCCAGCTGATGAATTAAGAATATCGAGTAAACAAATTTTCCTAATCTTTCTGTTCAAGCGCCATCTAC | 0.376
26 | GATGATTGTTCTCCCAGCTGATGAATTATATGGCTCGAGTAAACAAATTTTCCTAATCTTTCTGTTCAAGCGCCATCTAC | 0.6
27 | GATGATTGTTCTCCCAGCTGATGAATTCAACAGATCGAGTAAACAAATTTTCCTAATCTTTCTGTTCAAGCGCCATCTAC | 0.255
28 | GATGATTGTTCTCCCAGCTGATGAATTTATAGCTTCGAGTAAACAAATTTTCCTAATCTTTCTGTTCAAGCGCCATCTAC | 1.09
29 | GATGATTGTTCTCCCAGCTGATGAATTGAAATGGTCGAGTAAACAAATTTTCCTAATCTTTCTGTTCAAGCGCCATCTAC | 0.258
30 | GATGATTGTTCTCCCAGCTGATGAATTGAACACGTCGAGTAAACAAATTTTCCTAATCTTTCTGTTCAAGCGCCATCTAC | 0.368
31 | GATGATTGTTCTCCCAGCTGATGAATTACCCCAGTCGAGTAAACAAATTTTCCTAATCTTTCTGTTCAAGCGCCATCTAC | 0.208
32 | GATGATTGTTCTCCCAGCTGATGAATTCTCCACGTCGAGTAAACAAATTTTCCTAATCTTTCTGTTCAAGCGCCATCTAC | 0.253
33 | GATGATTGTTCTCCCAGCTGATGAATTTTGCAGATCGAGTAAACAAATTTTCCTAATCTTTCTGTTCAAGCGCCATCTAC | 0.618
34 | GATGATTGTTCTCCCAGCTGATGAATTAGGCCTATCGAGTAAACAAATTTTCCTAATCTTTCTGTTCAAGCGCCATCTAC | 1.68
35 | GATGATTGTTCTCCCAGCTGATGAATTGTTACGTTCGAGTAAACAAATTTTCCTAATCTTTCTGTTCAAGCGCCATCTAC | 0.986
36 | GATGATTGTTCTCCCAGCTGATGAATTACCGTTATCGAGTAAACAAATTTTCCTAATCTTTCTGTTCAAGCGCCATCTAC | 0.764
37 | GATGATTGTTCTCCCAGCTGATGAATTCTGCTATTCGAGTAAACAAATTTTCCTAATCTTTCTGTTCAAGCGCCATCTAC | 4.04
38 | GATGATTGTTCTCCCAGCTGATGAATTGCAGCATTCGAGTAAACAAATTTTCCTAATCTTTCTGTTCAAGCGCCATCTAC | 5.93
39 | GATGATTGTTCTCCCAGCTGATGAATTTATTGCGTCGAGTAAACAAATTTTCCTAATCTTTCTGTTCAAGCGCCATCTAC | 3.75
40 | GATGATTGTTCTCCCAGCTGATGAATTATTGAGATCGAGTAAACAAATTTTCCTAATCTTTCTGTTCAAGCGCCATCTAC | 0.438
